The supplement of paper PMC4967469

Key:
Assay in all cases: Viability of human cancer cell lines after 72 h of drug (GDSC screen)
[1] = compound: O=C1/C(=C/c2cccs2)CC/C1=C\c1cccs1 [CCT007093]; settings: top dose 6.6 µM; top dose inferred
Experimental: (§1)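 Human cancer cell lines in 384-well plates, medium with 10% serum, drug for 72 h over a 256-fold dose range (nine 2-fold or five 4-fold steps up to the top dose). Adherent lines were fixed and stained with the nucleic acid dye Syto60, suspension lines read with resazurin; signal relative to control wells, capped at 0 and 100%. One two-parameter sigmoid per drug and line, fitted in a mixed model over all curves with the slope shared within a line.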

[2] = compound: CCN1CCC(n2cc(CNc3cc(Cl)c4ncc(C#N)c(Nc5ccc(F)c(Cl)c5)c4c3)nn2)CC1 [KIN001-266]; settings: top dose 20 µM; top dose inferred
Experimental: as §1

[3] = compound: C=CC(=O)N1CCc2ccc(-n3c(=O)ccc4cnc5ccc(-c6cnn(C)c6)cc5c43)cc21 [QL-XII-47]; settings: top dose 10.24 µM; top dose inferred
Experimental: as §1

[4] = compound: COc1ccc(-c2cc3nccn3c(Nc3ncccc3C(N)=O)n2)cc1OC [BAY 61-3606]; settings: top dose 8 µM; top dose inferred
Experimental: as §1

Cell Line	AUC [1]	IC50 [1] [µM]	AUC [2]	IC50 [2] [µM]	AUC [3]	IC50 [3] [µM]	AUC [4]	IC50 [4] [µM]
OVTOKO (ovary, adherent)	0.966	> 6.6	0.877	> 20	0.815	7.7	0.634	1.3
P12-ICHIKAWA (T-cell lymphoblastic leukaemia, suspension)	0.991	> 6.6	0.893	14.3	0.507	0.664	0.826	3.44
P30-OHK (lymphoblastic leukaemia, suspension)	0.987	> 6.6	0.889	16.1	0.563	0.922	0.485	0.459
P31-FUJ (acute myeloid leukaemia, suspension)	0.994	> 6.6	0.903	15.1	0.923	9.38	0.993	> 8
P32-ISH (Burkitt lymphoma, suspension)	0.993	> 6.6	0.846	9.52	0.53	0.758	0.629	1.03
PA-1 (ovary, adherent)	0.974	> 6.6	0.845	10	0.314	0.22	0.649	1.17
PA-TU-8902 (pancreas, adherent)	0.973	> 6.6	0.778	9.57	0.644	1.73	0.942	> 8
PA-TU-8988T (pancreas, adherent)	0.97	> 6.6	0.936	> 20	0.661	1.8	0.829	4.99
PANC-02-03 (pancreas, adherent)	0.964	> 6.6	0.781	10	0.818	7.3	0.926	> 8
PANC-03-27 (pancreas, adherent)	0.988	> 6.6	0.75	6.15	0.748	3.11	0.813	3.98
PANC-04-03 (pancreas, adherent)	0.867	> 6.6	0.938	> 20	0.837	> 10.2	0.879	> 8
PANC-08-13 (pancreas, adherent)	0.962	> 6.6	0.791	11.9	0.571	1.05	0.857	> 8
PANC-10-05 (pancreas, adherent)	0.976	> 6.6	0.883	> 20	0.624	1.55	0.747	3.19
PC-3 (prostate, adherent)	0.98	> 6.6	0.667	4.06	0.72	3.13	0.983	> 8
PC-3 [JPC-3] (lung adenocarcinoma, adherent)	0.954	> 6.6	0.815	15.8	0.505	0.664	0.928	> 8
PC-14 (lung adenocarcinoma, adherent)	0.987	> 6.6	0.811	9.24	0.808	4.63	0.936	> 8

Cell Line	AUC [1]	IC50 [1] [µM]	AUC [2]	IC50 [2] [µM]	AUC [3]	IC50 [3] [µM]	AUC [4]	IC50 [4] [µM]
PCI-4B (head and neck, adherent)	0.948	> 6.6	0.877	18.4	0.51	0.68	0.765	2.78
PCI-6A (head and neck, adherent)	0.942	> 6.6	0.856	15.5	0.67	1.88	0.821	4.53
PCI-15A (head and neck, adherent)	0.953	> 6.6	0.987	> 20	0.757	3.56	0.873	7.8
PCI-30 (head and neck, adherent)	0.968	> 6.6	0.984	> 20	0.962	> 10.2	0.984	> 8
PCI-38 (head and neck, adherent)	0.906	> 6.6	0.871	19	0.913	> 10.2	0.906	> 8
PE/CA-PJ15 (head and neck, adherent)	0.967	> 6.6	0.941	> 20	0.848	8.62	0.985	> 8
PF-382 (T-cell lymphoblastic leukaemia, suspension)	0.991	> 6.6	0.854	12.8	0.442	0.454	0.758	2.47
PFSK-1 (medulloblastoma, adherent)	0.986	> 6.6	0.945	> 20	0.802	5.39	0.824	5.17
PL4 (pancreas, adherent)	0.987	> 6.6	0.913	> 20	0.904	> 10.2	0.954	> 8
PL18 (pancreas, adherent)	0.982	> 6.6	0.879	> 20	0.853	7.93	0.952	> 8
PSN1 (pancreas, adherent)	0.99	> 6.6	0.892	16.9	0.516	0.701	0.616	0.986
QIMR-WIL (acute myeloid leukaemia, suspension)	0.985	> 6.6	0.884	> 20	0.38	0.302	0.537	0.627
RC-K8 (B-cell lymphoma, suspension)	0.988	> 6.6	0.964	> 20	0.866	7.24	0.918	> 8
RCC10RGB (kidney, adherent)	0.953	> 6.6	0.819	> 20	0.746	6.73	0.857	> 8
RCM-1 (large intestine, adherent)	0.91	> 6.6	0.98	> 20	0.98	> 10.2	0.879	> 8

By IC50 is meant the dose at which the fit gives 50% viability; a fit beyond the top or the lowest dose is shown as a bound at that dose. AUC sums up the same curve from the lowest dose to the 256-fold higher top dose: 1 means no effect, lower means more sensitive. An inferred top dose was derived from the fitted curves, not read from the paper.
